The full ranking holds about 110,000 compounds; the median of “z-score” is about -0.1, and the highest 2% start at about 2. Some of the results follow. Calls of active or inactive are those of the source.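 How the source made its calls: active means z-score in the third read window above 3 or below -3; inactive means the rest.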
biological target: Metabotropic glutamate receptor 8 (Rattus norvegicus) (UniProt P70579); assay: rat mGluR8 modulators via GIRK flux, primary screen, cell-based, thallium flux, HTS (AID 488969); conditions: HEK293 rat mGluR8, GIRK (G protein-gated inwardly rectifying potassium channel) thallium flux, FluoZin2; at 10 µM; stronger effect = higher value; submaximal glutamate (EC20) added with thallium
Sequence of UniProt P70579 (P70579 whole entry, looked up): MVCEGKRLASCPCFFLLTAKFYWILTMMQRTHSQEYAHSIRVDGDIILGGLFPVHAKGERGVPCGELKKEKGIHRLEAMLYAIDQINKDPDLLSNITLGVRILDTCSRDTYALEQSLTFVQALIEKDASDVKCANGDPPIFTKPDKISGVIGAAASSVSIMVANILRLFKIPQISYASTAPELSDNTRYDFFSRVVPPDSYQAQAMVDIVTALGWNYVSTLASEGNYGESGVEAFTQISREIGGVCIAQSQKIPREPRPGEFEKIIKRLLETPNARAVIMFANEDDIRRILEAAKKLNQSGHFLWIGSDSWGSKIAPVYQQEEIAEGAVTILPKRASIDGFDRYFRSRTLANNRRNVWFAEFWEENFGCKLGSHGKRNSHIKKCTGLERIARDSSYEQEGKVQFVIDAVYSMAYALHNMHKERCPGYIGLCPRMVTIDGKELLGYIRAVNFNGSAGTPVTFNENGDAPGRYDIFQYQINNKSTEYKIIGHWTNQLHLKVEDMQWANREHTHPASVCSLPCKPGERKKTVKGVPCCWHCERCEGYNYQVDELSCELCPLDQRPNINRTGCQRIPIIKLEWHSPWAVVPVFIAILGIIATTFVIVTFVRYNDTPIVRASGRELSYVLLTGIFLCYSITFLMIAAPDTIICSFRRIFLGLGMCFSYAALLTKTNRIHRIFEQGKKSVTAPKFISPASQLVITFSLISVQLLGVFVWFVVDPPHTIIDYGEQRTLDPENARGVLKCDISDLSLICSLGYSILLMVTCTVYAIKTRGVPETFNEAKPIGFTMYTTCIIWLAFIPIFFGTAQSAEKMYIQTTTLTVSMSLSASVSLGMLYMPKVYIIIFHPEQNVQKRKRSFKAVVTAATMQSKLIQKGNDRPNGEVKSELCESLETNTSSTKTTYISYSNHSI

Row | Compound | z-score
1 | CCOC(=O)N1CCN(C(=O)c2csc3c2CCCCC3)CC1 | 0.806
2 | CNC(=O)CSc1nnc(-c2cc3c(C)nn(-c4ccccc4)c3s2)n1C | -0.604
3 | CC(=O)Nc1ccc(S(=O)(=O)/N=C2\SCCN2S(=O)(=O)c2ccc(NC(C)=O)cc2)cc1 | 0.684
4 | C=CCNC(=O)/C(=C\c1ccc([N+](=O)[O-])cc1)NC(C)=O | -0.158
5 | Cc1cccc(C)c1NC(=S)N(c1ccccc1)C(C)C | -0.568
6 | Cc1ccc(NC(=S)NNC(=O)c2nn(C)cc2Cl)cc1 | -0.547
7 | CCCOc1ccc(C(=O)NCC(c2ccco2)N(C)C)cc1OC (centres undefined) | 0.199
8 | N#Cc1c(-c2ccccc2)c(-c2ccccc2)n(Cc2ccco2)c1NC(=O)c1cccs1 | -0.156
9 | O=C(Nc1ccccc1)OC1CCC2CC1CCC2OC(=O)Nc1ccccc1 (centres undefined) | 0.663
10 | O=C(Oc1ccc(F)cc1C(=O)/C=C/c1cccs1)c1cccc([N+](=O)[O-])c1 | 0.0714
11 | COc1ccc(/C=C2/SC(c3ccc(C)cc3)=NC2=O)cc1OC | 0.0235
12 | CSc1nc(-c2ccco2)nn1C(=O)c1ccccc1 | -0.177
13 | C=CCNC1=C(Cl)C(=O)c2ccccc2C1=O | -0.82
14 | CC1(C)C(C=C(Cl)Cl)C1C(=O)Nc1ccc([N+](=O)[O-])cc1 (centres undefined) | -0.275
15 | N#C/C(=N\Nc1c(Cl)cccc1Cl)C(=O)NN | -0.152
16 | Cn1c(=O)c2c(ncn2CC(=O)OCC(=O)Nc2ccccc2Cl)n(C)c1=O | -0.159
17 | O=C(O)C1CCCCC1C(=O)NCc1ccc(F)cc1 (centres undefined) | -0.0598
18 | C=CCOc1ccc(CNc2ccc(NC(=O)CCC)cc2)cc1OCC | -0.288
19 | CC(C)[C@H](NC(=O)Nc1ccc2c(c1)OCCO2)C(=O)O | -0.245
20 | Cc1cc(NC(=O)C2CCCN(S(=O)(=O)c3c(C)noc3C)C2)n[nH]1 (centres undefined) | 0.383
21 | COc1ccc(CCNC(=O)c2ccc(CS(=O)(=O)c3ccc(Cl)cc3)o2)cc1OC | -0.0275
22 | CC(=O)Nc1ccccc1-c1nc2ccc(C(=O)N3CCN(c4ccccc4)CC3)cc2[nH]c1=O | -0.0342

Row | Compound | z-score
23 | O=C(Cn1cnc2c(nnn2Cc2ccccc2F)c1=O)NCC1CCCO1 (centres undefined) | 0.111
24 | O=C(CN1C(=O)C2CC=CCC2C1=O)NC1CCCc2ccccc21 (centres undefined) | -0.0984
25 | O=C(NCc1nc2ccccc2[nH]1)c1cccs1 | -0.444
26 | CCOC(=O)c1c(NC(=O)Cn2c(=O)oc3ccccc32)oc(C)c1C(C)=O | -0.0534
27 | Cc1nn(-c2ccccc2)c(C)c1C(=O)OCC(=O)NC12CC3CC(CC(C3)C1)C2 | -0.731
28 | Cc1cc(C)n(CC(=O)N/N=C/c2ccc(C)o2)n1 | -0.0886
29 | O=C(CNC(=O)C12CC3CC(CC(C3)C1)C2)N1CCN(S(=O)(=O)c2cccs2)CC1 | -0.178
30 | CCN(CC)S(=O)(=O)c1cccc(NC(=O)c2cc(-c3cccs3)nn2-c2ccccc2)c1 | -0.292
31 | O=C(COc1cc(Cl)c(Cl)cc1Cl)NC(=O)NC1CCCC1 | -0.00654
32 | Cc1nn(C(C)c2n[nH]c(=S)n2-c2cccc(Cl)c2)c(C)c1[N+](=O)[O-] (centres undefined) | -0.0289
33 | CC(C)n1cc(/C=N/NC(=O)COc2cccc3cccnc23)c2ccccc21 | -0.481
34 | Cc1cc(C)nc(SCc2ccc(C(=O)N/N=C/C3CCCCC3)cc2)n1 | 0.0492
35 | N#Cc1c(NCCN)nc(-c2ccccc2)c2c1CCCC2 | 0.97
36 | c1cc2ccc3ccc(-n4cnnn4)c4ccc(c1)c2c34 | -0.193
37 | COc1ccc(NC(=O)C2CCC(C)(C(=O)O)C2(C)C)cc1 (centres undefined) | -0.258
38 | CC(Oc1ccc(C(C)(C)C)cc1)c1ccnc2nc(/N=C/N(C)C)nn12 (centres undefined) | -0.181
39 | CN(C)C(=O)c1c([N+](=O)[O-])ncn1C | -0.0559
40 | CC1=CC(C)(C)Nc2ccc(OC(=O)C(C)N3C(=O)c4ccccc4C3=O)cc21 (centres undefined) | -0.257
41 | CCOC(=O)N1CCN(c2c(N3CC=C(c4ccccc4)CC3)c(=O)c2=O)CC1 | -0.121
42 | CCCC(=O)Nc1ccc(Cl)c(NC(=O)C(C)(C)C)c1 | -0.219
43 | O=C1C2C3C=CC(C3)C2C(=O)N1c1ccc2c(c1)OCO2 (centres undefined) | 0.364
44 | Cc1ccccc1OCCCC(=O)Nc1ccc(Br)cc1 | -0.372

Row | Compound | z-score
45 | COc1ccc(-c2cc(C(=O)NCc3ccco3)no2)cc1OC | -0.404
46 | COc1ccc(/C=N/NC(=O)c2ccc(CN3c4cccc5cccc(c45)S3(=O)=O)cc2)cc1 | -0.221
47 | Cc1ccc(OCC(=O)NNC(=O)C(C)Sc2ncnc3sc(C)c(C)c23)cc1 (centres undefined) | active: 7.7
48 | CCOC(=O)c1c(-c2ccc(C)cc2)csc1NC1=NS(=O)(=O)c2ccccc21 | 0.234
49 | CCC(C)(C)n1nnnc1C(c1ccncc1)N1CCN(c2cccc(OC)c2)CC1 (centres undefined) | -0.581
50 | Cc1cc(C)n2ncc(C(=O)NCc3ccccc3)c2n1 | -1.01
51 | COc1cc2c(cc1OC)CN(CC(=O)Nc1ccc(C#N)cc1)CC2 | -0.227
52 | CC(=O)NCCOc1ccc(C(=O)O)cc1 | 0.21
53 | Oc1c(C(c2ccco2)N2CCC3(CC2)OCCO3)sc2ncnn12 (centres undefined) | -0.187
54 | COc1cccc(C(=O)OC(C)CN2CCCC2)c1 (centres undefined) | -0.531
55 | O=C1CC(C(F)(F)C(F)(F)C(F)(F)C(F)(F)F)=Nc2ccccc2N1 | -0.248
56 | CCOC(=O)c1cccnc1NC(=O)c1ccncc1 | 0.0523
57 | CC(C)(C)C(=O)Nc1sc2c(c1-c1nc3ccccc3[nH]1)CCCC2 | 0.132
58 | CC(C)(C)n1nnnc1C(c1ccccc1F)N(Cc1ccco1)CC1CCCO1 (centres undefined) | -0.39
59 | CC(C)C(=O)Nc1cccc2nsnc12 | -0.858
60 | Cc1ccc(CSc2nnc(SCC(=O)N/N=C/C=C/c3ccccc3[N+](=O)[O-])s2)cc1 | 0.183
61 | CCNC(=S)NS(=O)(=O)c1ccc(C)cc1 | -0.000771
62 | COc1ccc(S(=O)(=O)NCCN2CCOCC2)c2ccccc12 | 1
63 | O=C(OCC(=O)c1c[nH]c2ccccc12)c1ccc(Br)o1 | -0.145
64 | CC1CCC(C(=O)NC(C(=O)NCc2cccnc2)C(C)C)CC1 (centres undefined) | -1.4
65 | Cc1nc(CS(=O)(=O)c2ccc(Cl)cc2)cc(N2CCOCC2)n1 | 0.0281
66 | Cn1c(=O)cc(OCCCC(=O)N2CCN(c3ccccc3)CC2)c2ccccc21 | -0.127

Row | Compound | z-score
67 | COc1ccc(CNC(=O)C(NS(=O)(=O)c2ccc3c(c2)CCCN3C(C)=O)C(C)C)cc1 (centres undefined) | -0.394
68 | CC(=O)N1CCN(S(=O)(=O)c2cccc(C(=O)NC3CCCc4ccccc43)c2)CC1 (centres undefined) | 0.0317
69 | Nc1nc(Sc2ccc(C(F)(F)F)cc2[N+](=O)[O-])n[nH]1 | 0.313
70 | Cc1ccc(NC(=O)CC(C)N2CCCC2)cc1 (centres undefined) | -0.269
71 | CN(Cc1ccccc1)C(=O)CN(C1CCCCC1)S(C)(=O)=O | 0.423
72 | CCOc1cc(C)c(C(C)C)cc1S(=O)(=O)n1ccc(C)n1 | -1.39
73 | CC(C)(C)C1CCc2c(sc(NC(=O)c3cccs3)c2C(N)=O)C1 (centres undefined) | -1.18
74 | CC(=O)Nc1ccc(NC(=O)C(C)OC(=O)c2ccc(OCc3c(C)noc3C)cc2)cc1 (centres undefined) | -0.832
75 | Oc1cccc(/C=N/NC(=S)Nc2cccnc2)c1O | -0.0902
76 | COc1cc(C2C(C#N)=C(N)Oc3cc(C)n(CC4CCCO4)c(=O)c32)cc2c1OCO2 (centres undefined) | 1.13
77 | Cc1c(NC(=O)/C=C/c2cn(-c3ccccc3)nc2-c2ccccc2)c(=O)n(-c2ccccc2)n1C | -0.381
78 | O=C(CNC(=O)/C=C/c1ccccc1)N=Nc1c(O)n(Cc2ccccc2)c2ccccc12 | 0.491
79 | COc1cccc2cc(C(=O)N3CCC(C)CC3)c(=O)oc12 | -0.528
80 | COc1ccccc1CNC(=O)C1CCCN(S(=O)(=O)c2c(C)[nH]c(=O)[nH]c2=O)C1 (centres undefined) | -0.16
81 | Fc1ccccc1N1CCN(C(c2ccccn2)c2nnnn2C2CCCCC2)CC1 (centres undefined) | -0.0672
82 | O=C(c1cc(Cl)nc2ccccc12)N1CCCCC1 | 0.0309
83 | O=C(c1ccc2ccccc2c1)c1c[nH]cc1-c1ccccc1 | -0.152
84 | S=c1oc(-c2ccncc2)nn1CCc1ccncc1 | -0.237
85 | CC(C)Oc1ccc(Cn2c(-c3ccco3)n[nH]c2=S)cc1 | 0.738
86 | CN(c1ccc(C(=O)NCc2ccc3c(c2)OCO3)cc1)S(C)(=O)=O | 0.173
87 | O=C(NC(=O)N1CCN(c2ccc(F)cc2)CC1)c1ccccc1 | 0.0399
88 | COc1cc(OC)cc(C(=O)NNC(=O)c2ccccn2)c1 | 0.911

Row | Compound | z-score
89 | Cc1ccccc1NC(=O)C1Cc2ccccc2C(=O)O1 (centres undefined) | 0.102
90 | CCCSc1nnc(-c2ccccc2NC(=O)CC)c(=O)[nH]1 | -0.696
91 | O=C(NCCCO)C(=O)NCCc1ccc(Cl)cc1 | 0.167
92 | Cc1cc(C)nc(SCC(=O)n2c3c(c4ccccc42)CCCC3)n1 | -0.336
93 | COc1cccc(CN(C(=O)Cc2c[nH]c3ccccc23)C(C(=O)NC2CCCCC2)c2ccc(C)o2)c1 (centres undefined) | -0.706
94 | CCCC(NS(=O)(=O)c1ccc(C)cc1)C(=O)O (centres undefined) | 0.58
95 | COCc1cc(C2C(C(=O)c3ccco3)=C(O)C(=O)N2CCOCCO)ccc1O (centres undefined) | 0.0385
96 | CS(=O)(=O)N(CC(=O)Nc1ccc2c(c1)OCCO2)Cc1ccccc1 | -0.179
97 | O=C(NCc1ccccc1Cl)C1CCN(S(=O)(=O)N2CCCCC2)CC1 | 1.32
98 | CCCc1nc2ccccc2n2cc3c(=O)n(C)c(=O)n(C)c3c12 | 0.0227
99 | CCOC(=O)C1CCCN(c2nc3ccccc3nc2C(C#N)C(=O)OC(C)C)C1 (centres undefined) | -0.35
100 | CCn1c(=N)n(CC(=O)OC)c2ccccc21 | -0.45
101 | COC(=O)Nc1sc2c(c1C(=O)N1CCOCC1)CCC(C)C2 (centres undefined) | 0.0522
102 | Cc1ccc(-c2nnc(N3CCN(S(C)(=O)=O)CC3)c3ccccc23)cc1 | 0.51
103 | O=C(CSc1nc(-c2ccccc2)cs1)NCc1ccco1 | -0.112
104 | CCN1C(=O)/C(=C/c2cn(C)nc2C)SC1=S | -0.188
105 | Cn1c(=O)c2c(ncn2CC(=O)N/N=C/C=C/c2ccccc2)n(C)c1=O | -0.372
106 | CCn1c(SCC(=O)NC2CCCCC2)nnc1-c1cc2cccc(OC)c2o1 | -1.02
107 | Cc1ccc(OCC(=O)OCc2c(C)noc2C)cc1C | -0.167
108 | COc1ccc(-c2cc(C(=O)NCc3cccnc3)no2)cc1OC | 0.108
109 | O=C(Nc1ccc(Cl)cn1)C1CCCN1S(=O)(=O)c1ccc(Cl)cc1 (centres undefined) | -0.562

— PubChem BioAssay AID488969 (Vanderbilt High Throughput Screening Facility, 2010)
